According to article PMC9911399, “Two distinct binding modes provide the RNA-binding protein RbFox with extraordinary sequence specificity”:
Substitutions are numbered along the chain they refer to; changes in the protein carry UniProt numbers. Some of the results follow.

T1: RBFOX1 RRM (Homo sapiens, UniProt Q9NWB1 109-208)
T1 sequence: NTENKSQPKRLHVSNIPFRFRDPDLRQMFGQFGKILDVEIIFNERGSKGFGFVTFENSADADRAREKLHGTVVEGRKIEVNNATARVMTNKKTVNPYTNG

B1: CGCCCCC (DNA:RNA)
RNA: GGGAGACCGGAAUUCAGAUUGUCCCGCCCCCUUAAAUCCCGUCGUAGCCACCA
DNA 1: CAATCTGAATTCCGGTCTCCC
DNA 2: TGGTGGCTACGACGGGATT
B2: GGGCUCG (DNA:RNA)
RNA: B1 RNA with C25G, C27G, C29U, C31G
DNA 1: CAATCTGAATTCCGGTCTCCC
DNA 2: TGGTGGCTACGACGGGATT
B3: AAUAUUU (DNA:RNA)
RNA: GGGAGACCGGAAUUCAGAUUGUCCAAUAUUUUUAAAUCCCGUCGUAGCCACCA
DNA 1: CAATCTGAATTCCGGTCTCCC
DNA 2: TGGTGGCTACGACGGGATT
B4: CGUACUA (DNA:RNA)
RNA: B3 RNA with A25C, A26G, U29C, U31A
DNA 1: CAATCTGAATTCCGGTCTCCC
DNA 2: TGGTGGCTACGACGGGATT
B5: GUUACGC (DNA:RNA)
RNA: B3 RNA with A25G, A26U, U29C, U30G, U31C
DNA 1: CAATCTGAATTCCGGTCTCCC
DNA 2: TGGTGGCTACGACGGGATT
B6: GUAGACA (DNA:RNA)
RNA: B1 RNA with C25G, G26U, C27A, C28G, C29A, C31A
DNA 1: CAATCTGAATTCCGGTCTCCC
DNA 2: TGGTGGCTACGACGGGATT
B7: UUGCUUA (DNA:RNA)
RNA: B3 RNA with A25U, A26U, U27G, A28C, U31A
DNA 1: CAATCTGAATTCCGGTCTCCC
DNA 2: TGGTGGCTACGACGGGATT
B8: UUCGUAC (DNA:RNA)
RNA: B1 RNA with C25U, G26U, C28G, C29U, C30A
DNA 1: CAATCTGAATTCCGGTCTCCC
DNA 2: TGGTGGCTACGACGGGATT
B9: GACCCAG (DNA:RNA)
RNA: B1 RNA with C25G, G26A, C30A, C31G
DNA 1: CAATCTGAATTCCGGTCTCCC
DNA 2: TGGTGGCTACGACGGGATT
B10: UGGGCCC (DNA:RNA)
RNA: B1 RNA with C25U, C27G, C28G
DNA 1: CAATCTGAATTCCGGTCTCCC
DNA 2: TGGTGGCTACGACGGGATT
B11: CCCCUUU (DNA:RNA)
RNA: B3 RNA with A25C, A26C, U27C, A28C
DNA 1: CAATCTGAATTCCGGTCTCCC
DNA 2: TGGTGGCTACGACGGGATT
B12: GCACGCU (DNA:RNA)
RNA: B1 RNA with C25G, G26C, C27A, C29G, C31U
DNA 1: CAATCTGAATTCCGGTCTCCC
DNA 2: TGGTGGCTACGACGGGATT
B13: GUGUUGA (DNA:RNA)
RNA: B3 RNA with A25G, A26U, U27G, A28U, U30G, U31A
DNA 1: CAATCTGAATTCCGGTCTCCC
DNA 2: TGGTGGCTACGACGGGATT
B14: AUCGAGC (DNA:RNA)
RNA: B1 RNA with C25A, G26U, C28G, C29A, C30G
DNA 1: CAATCTGAATTCCGGTCTCCC
DNA 2: TGGTGGCTACGACGGGATT
B15: UACCGCA (DNA:RNA)
RNA: B1 RNA with C25U, G26A, C29G, C31A
DNA 1: CAATCTGAATTCCGGTCTCCC
DNA 2: TGGTGGCTACGACGGGATT
B16: ACCGUGC (DNA:RNA)
RNA: B3 RNA with A26C, U27C, A28G, U30G, U31C
DNA 1: CAATCTGAATTCCGGTCTCCC
DNA 2: TGGTGGCTACGACGGGATT
B17: CGUAUAA (DNA:RNA)
RNA: B3 RNA with A25C, A26G, U30A, U31A
DNA 1: CAATCTGAATTCCGGTCTCCC
DNA 2: TGGTGGCTACGACGGGATT
B18: CCCUAGA (DNA:RNA)
RNA: B1 RNA with G26C, C28U, C29A, C30G, C31A
DNA 1: CAATCTGAATTCCGGTCTCCC
DNA 2: TGGTGGCTACGACGGGATT
B19: GCGCUAC (DNA:RNA)
RNA: B1 RNA with C25G, G26C, C27G, C29U, C30A
DNA 1: CAATCTGAATTCCGGTCTCCC
DNA 2: TGGTGGCTACGACGGGATT
B20: UUGCCAG (DNA:RNA)
RNA: B1 RNA with C25U, G26U, C27G, C30A, C31G
DNA 1: CAATCTGAATTCCGGTCTCCC
DNA 2: TGGTGGCTACGACGGGATT
B21: CAUACAU (DNA:RNA)
RNA: B3 RNA with A25C, U29C, U30A
DNA 1: CAATCTGAATTCCGGTCTCCC
DNA 2: TGGTGGCTACGACGGGATT
B22: UUCUGAA (DNA:RNA)
RNA: B1 RNA with C25U, G26U, C28U, C29G, C30A, C31A
DNA 1: CAATCTGAATTCCGGTCTCCC
DNA 2: TGGTGGCTACGACGGGATT
B23: ACUGCAG (DNA:RNA)
RNA: B3 RNA with A26C, A28G, U29C, U30A, U31G
DNA 1: CAATCTGAATTCCGGTCTCCC
DNA 2: TGGTGGCTACGACGGGATT
B24: UACUCGA (DNA:RNA)
RNA: B1 RNA with C25U, G26A, C28U, C30G, C31A
DNA 1: CAATCTGAATTCCGGTCTCCC
DNA 2: TGGTGGCTACGACGGGATT
B25: ACGAUGG (DNA:RNA)
RNA: B3 RNA with A26C, U27G, U30G, U31G
DNA 1: CAATCTGAATTCCGGTCTCCC
DNA 2: TGGTGGCTACGACGGGATT
B26: CUCUACG (DNA:RNA)
RNA: B1 RNA with G26U, C28U, C29A, C31G
DNA 1: CAATCTGAATTCCGGTCTCCC
DNA 2: TGGTGGCTACGACGGGATT
B27: AAAUAGU (DNA:RNA)
RNA: B3 RNA with U27A, A28U, U29A, U30G
DNA 1: CAATCTGAATTCCGGTCTCCC
DNA 2: TGGTGGCTACGACGGGATT
B28: UCACGGC (DNA:RNA)
RNA: B1 RNA with C25U, G26C, C27A, C29G, C30G
DNA 1: CAATCTGAATTCCGGTCTCCC
DNA 2: TGGTGGCTACGACGGGATT
B29: CUGCUUU (DNA:RNA)
RNA: B3 RNA with A25C, A26U, U27G, A28C
DNA 1: CAATCTGAATTCCGGTCTCCC
DNA 2: TGGTGGCTACGACGGGATT
B30: GUGGAGG (DNA:RNA)
RNA: GGGAGACCGGAAUUCAGAUUGUCCGUGGAGGUUAAAUCCCGUCGUAGCCACCA
DNA 1: CAATCTGAATTCCGGTCTCCC
DNA 2: TGGTGGCTACGACGGGATT
B31: CGGAGGG (DNA:RNA)
RNA: B30 RNA with G25C, U26G, G28A, A29G
DNA 1: CAATCTGAATTCCGGTCTCCC
DNA 2: TGGTGGCTACGACGGGATT

biological target: T1, RBFOX1 RRM; test: EMSA; HiTS-Eq, 1 nM pool, 10 min; buffer printed only for the single-RNA assays: 10 mM Tris pH 7.5, 150 mM NaCl, 3.4 mM EDTA, 0.001% NP-40, 30 C; settings: tags: His6 N-terminal (pET28a); label: 5' 32P
Procedure, shortened: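 Purified RbFox RRM, wild type or mutant, was incubated for 10 min in 50 µL with 1 nM of a 5′-radiolabelled RNA pool carrying 7 randomized nucleotides, whose flanks were annealed to DNA oligonucleotides, over a series of increasing protein concentrations. Unbound RNA was resolved on 8% native PAGE, cut out, reverse-transcribed, barcoded by PCR and sequenced on an Illumina HiSeq 2500. Relative association constants were derived from changes in read counts for each RNA species versus the control reaction and normalised to the cognate motif.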

Binder	binding signal
B1	0.00952 KA relative to UGCAUGU
B2	0.019 KA relative to UGCAUGU
B3	0.00109 KA relative to UGCAUGU
B4	0.00448 KA relative to UGCAUGU
B5	0.0147 KA relative to UGCAUGU
B6	0.00587 KA relative to UGCAUGU
B7	0.0125 KA relative to UGCAUGU
B8	0.009 KA relative to UGCAUGU
B9	0.00593 KA relative to UGCAUGU
B10	0.0266 KA relative to UGCAUGU
B11	0.000239 KA relative to UGCAUGU
B12	0.0317 KA relative to UGCAUGU
B13	0.0228 KA relative to UGCAUGU
B14	0.00809 KA relative to UGCAUGU
B15	0.0103 KA relative to UGCAUGU
B16	0.00919 KA relative to UGCAUGU

Binder	binding signal
B17	0.00298 KA relative to UGCAUGU
B18	0.0137 KA relative to UGCAUGU
B19	0.0117 KA relative to UGCAUGU
B20	0.0178 KA relative to UGCAUGU
B21	0.000351 KA relative to UGCAUGU
B22	0.0233 KA relative to UGCAUGU
B23	0.0127 KA relative to UGCAUGU
B24	0.0112 KA relative to UGCAUGU
B25	0.0172 KA relative to UGCAUGU
B26	0.00524 KA relative to UGCAUGU
B27	0.00335 KA relative to UGCAUGU
B28	0.00943 KA relative to UGCAUGU
B29	0.0158 KA relative to UGCAUGU
B30	0.023 KA relative to UGCAUGU
B31	0.0111 KA relative to UGCAUGU
